# Source: article PMC10668032
# The other results are listed elsewhere or left out. At the low end of the ranking the order means little.
# Molecular target: SIX1-Q177R homeodomain (UniProt Q15475)
# Test: universal protein binding microarray
# Conditions: Universal all-10-mer PBM (8x60K, AMADID 030236), 300 nM GST-tagged protein, Alexa Fluor 488 anti-GST; buffer, salt, pH and temperature not stated; high values mean tight binding; most listed sequences are background and not binding sites; double strand, one strand shown
row,Sequence,binding signal [E-score]
1,AAACGAAC,-0.0362
2,TCCCCGGA,0.0682
3,CCGATCGC,-0.144
4,ACAAGCGC,-0.086
5,ATAAAATA,0.0895
6,AGAACTAC,-0.0342
7,AATACCTC,0.0743
8,GAAATTTA,-0.225
9,ACAGCCAT,-0.0329
10,AATCATCC,-0.22
11,CTGCGTGC,0.0965
12,AATATCCG,-0.02
13,CGAGCGTA,-0.0884
14,GCACTTGA,0.12
15,GCACTACC,0.0861
16,ACGTGTCG,0.383
17,ACGGTCAC,-0.0158
18,CAGTTACA,-0.00257
19,AGTCGAGA,-0.0567
20,CTTTATGA,-0.0999
21,AACAATGG,-0.0219
22,GGGGATAC,0.254
23,CAGCCGCA,-0.266
24,AGCTACAA,-0.0921
25,CACCTAAG,0.263

row,Sequence,binding signal [E-score]
1,ACCAGGCG,0.143
2,CGGTTCAA,-0.034
3,CGTAGTTC,-0.174
4,CGGAAGAC,0.129
5,CTATTTAC,0.174
6,AAGGCGTG,0.0573
7,ATGCCAGA,-0.143
8,CCTTTCTA,0.0895
9,CGCCTAAG,-0.217
10,AAGTAATT,-0.29
11,GTCCGAGA,-0.181
12,CACTCGGA,0.177
13,ATAACTGA,-0.0851
14,ACGGTAAA,-0.194
15,AATACTTA,-0.0981
16,AGATTGCG,-0.283
17,GAAAAAGA,-0.122
18,GTAATCTA,-0.012
19,GTCGTCCA,-0.107
20,TTGCCCAA,-0.0843
21,ACCCTTCT,0.113
22,ATCGTACG,-0.147
23,ATCCGTGG,-0.00125
24,CCATCCAA,0.0652
25,CGATGAGC,-0.0951

row,Sequence,binding signal [E-score]
1,CAAAGCTA,-0.187
2,ACCGTTTC,0.00664
3,TCTAGGAA,-0.223
4,GACGTAGC,-0.0396
5,CATTTAGA,-0.114
6,GCCCATCA,-0.117
7,GCCTACGC,0.167
8,ATGGGCAA,-0.201
9,GACTGTCC,-0.0035
10,GGTGTAAA,0.476
11,CGTTAATA,-0.0109
12,TCGGCCCA,-0.114
13,CTATCTTC,-0.212
14,GCTGCACC,0.13
15,CTTCCAAA,-0.183
16,CTCTATAA,-0.193
17,GAGCTATC,-0.2
18,ATTTTACA,0.19
19,AATATTCT,-0.0368
20,AGCAGACG,-0.306
21,GCAGTCCA,-0.206
22,TTCATAAA,-0.23
23,CCTCTGCA,-0.0751
24,ACCTGTGA,0.0256
25,ACCTAATG,0.00106

row,Sequence,binding signal [E-score]
1,GTGATATA,-0.00231
2,CCGGCCCA,-0.121
3,GGGCGACC,-0.17
4,GGCTATGA,-0.269
5,TTAGATAA,-0.133
6,ACCGCGCG,-0.00263
7,ATAACGCA,-0.176
8,ACTTTCAG,0.0215
9,AAAGTCGG,-0.207
10,AACCCCCA,0.209
11,AGCATTGG,-0.0979
12,CCGTATGC,0.0157
13,GCCTTTGA,-0.0366
14,CTACTCAA,0.0598
15,AGACGATA,-0.0676
16,CATGTTTA,0.00291
17,CAGGATAG,-0.0461
18,ATGTACCG,-0.0954
19,TGCCGACA,0.177
20,CCTTATGA,0.0555
21,AATGGTCG,-0.177
22,TCTTTAAA,-0.277
23,CAGTGGCA,-0.16
24,ACCCTCCG,0.271
25,CCGGAGGA,-0.0309

row,Sequence,binding signal [E-score]
1,AGTCAAAG,-0.138
2,GAGGCCTC,-0.227
3,ATGTCAAC,-0.019
4,ACGTACCA,-0.187
5,AGAAATCA,-0.235
6,ACGGCGAA,-0.0873
7,CAACGTAG,-0.0281
8,ATACAACG,-0.206
9,CCTGCATA,0.0471
10,CAGACGTC,-0.145
11,AGAGGGAC,-0.124
12,TCACTCAA,-0.183
13,AGCCCTAG,-0.0605
14,GACTTCAA,-0.0487
15,CAATCAAC,-0.292
16,TCCATCGA,-0.114
17,CTAACAAG,-0.25
18,CTAAACCA,-0.0423
19,CCTTGTGA,0.0332
20,GGATCACC,0.203
21,AGCTACCA,-0.0585
22,GTCTTCAA,-0.192
23,ATATCTTG,-0.1
24,CGTTCGTC,-0.146
25,ACGAGCGT,0.0651

row,Sequence,binding signal [E-score]
1,AGCGTAAT,-0.0257
2,GCCATCAC,-0.217
3,ATGTAATA,-0.115
4,CGCTTACA,0.196
5,GGCTCACA,-0.0043
6,GACTCGAC,0.0878
7,GAAGTTCA,-0.266
8,ATAGCTAA,-0.197
9,ATTGTGTA,0.151
10,CACGGAAC,0.238
11,AGATGACT,0.00729
12,AGGAGGTG,0.286
13,GGCGCCCA,-0.15
14,GTCGGCTA,-0.0612
15,TCCAGACA,0.078
16,CGCCCCCC,-0.00467
17,CACTTCCA,0.202
18,CCCGGTAG,0.0724
19,ACGTGTGG,0.218
20,GTGATCAA,0.0414
21,CCGAGCAG,-0.0678
22,GAAATATA,-0.0729
23,AGAGCACA,-0.0132
24,AGTACCAA,-0.0263
25,AGTGCTTC,-0.113

row,Sequence,binding signal [E-score]
1,TAACCCAA,-0.017
2,AGTCTCCA,-0.0848
3,ACACTGAC,0.381
4,CGCTGAGC,-0.25
5,GAAGACCA,-0.174
6,CGTCCATA,-0.111
7,AACTATGC,-0.125
8,CGGTCCGA,-0.197
9,CATGTCAC,0.0812
10,GGGGCGGA,0.109
11,CCCGCGCC,0.154
12,ACAGGGCT,-0.0118
13,CCCCTATA,0.106
14,GCCCCGTA,-0.129
15,AGTCGCAT,-0.114
16,AGAAGAAC,-0.142
17,ACTTCGCT,-0.0234
18,GTCTTATA,0.0543
19,GGCATACA,0.0981
20,AGTCTGCA,-0.156
21,CAGCGGCA,-0.372
22,CTCCAGGC,0.0595
23,CGAAGTAA,-0.108
24,GCCAGAAC,0.00273
25,ATTCTTAA,-0.0926

row,Sequence,binding signal [E-score]
1,AACCTAAA,-0.143
2,TATCTAGA,0.0317
3,TCTTTTCA,-0.193
4,CCACCTAA,0.0742
5,CACCAAGG,0.265
6,CACGGGTC,0.253
7,TGTCACAA,0.129
8,ACCTGAAT,0.0132
9,CCCAGGGC,-0.138
10,AATCGACA,0.173
11,AGTAGTCG,-0.0658
12,AGGTGTAA,0.463
13,GACCGCGC,-0.101
14,CAGCTGTC,-0.196
15,GATTCTAA,-0.117
16,GTGCGCAA,0.0875
17,ATACATGG,-0.0113
18,AAGGTCTA,-0.0963
19,GACAGCCC,-0.299
20,CCATCACA,0.103
21,AAACGTTA,-0.0516
22,CCTAATCA,-0.0718
23,CGTCCCCA,-0.0489
24,AAGCTGAC,-0.284
25,GCCGTACA,0.133

row,Sequence,binding signal [E-score]
1,CTCATGCA,-0.107
2,CCGACGCA,-0.0586
3,CAACATCA,-0.14
4,GCTCTAGA,-0.243
5,CAGGGACG,0.0241
6,GGTTTAAC,0.193
7,AATCTTGT,-0.202
8,CCAACCTA,-0.176
9,GCAGGTAA,-0.14
10,AATTCGGC,-0.0519
11,ATTTAATG,-0.0932
12,AAGAACTA,-0.129
13,ATGGCTTC,-0.208
14,CGCAGGGA,-0.0293
15,AACCGCCG,-0.0826
16,AAGAGGAT,0.0451
17,ATCTTCAT,-0.249
18,GCCCTCAA,-0.0616
19,GATCTAGA,-0.183
20,GATCCTGA,-0.0224
21,TCAGAGCA,-0.131
22,AAAACATC,-0.00295
23,AAACAACT,-0.13
24,CAGAGACA,0.0702
25,AGGTCCCC,-0.148

row,Sequence,binding signal [E-score]
1,CTCGGAAA,-0.00597
2,CCGCAAAA,0.0302
3,ACGACTAG,0.0587
4,AAATAGCA,-0.0795
5,ATCGCTTC,-0.14
6,GTTTCAAA,-0.0998
7,ACTACCGG,0.118
8,ATCCGCAT,0.00834
9,ATGTACGG,-0.115
10,TCTTACAA,0.0494
11,AGATGAGA,-0.0389
12,AACACCTA,0.444
13,CCCTGTGA,0.0909
14,ACAGGAAG,0.0565
15,AGAGTGAG,0.0316
16,GTACACAA,0.308
17,AATTACAA,-0.129
18,TGACACAA,0.298
19,ATCAAAAC,-0.0115
20,GTAGGAAA,-0.0356
21,CGCGAATC,-0.0176
22,AGGATTCG,0.00895
23,GGCAGAGA,-0.28
24,CTCTGCGA,-0.0488
25,CATAGCCG,-0.1

row,Sequence,binding signal [E-score]
1,ATTACCAG,-0.155
2,TGATTGCA,-0.0908
3,GCCATCAA,-0.183
4,GTTCCTTA,-0.072
5,GTGTTTAA,0.375
6,GATTAATC,0.0169
7,AGCCGCTA,-0.208
8,CAAGGTCA,0.0971
9,CCAGGTCC,-0.0461
10,TCGATAAA,-0.164
11,GCCCTTCA,-0.302
12,GATCTTTA,-0.0615
13,CGAGAAGA,-0.23
14,CATGTACA,0.167
15,CGTATTAG,0.11
16,GACTTCCA,-0.194
17,AGGTTGAC,-0.045
18,CGGTGAGA,0.177
19,AACGGTGC,0.184
20,CATTAGGA,-0.00029
21,CGCACGTC,-0.157
22,TCTAAGAA,-0.14
23,GTATCGAC,0.22
24,CGTCAACA,0.148
25,ACTCAGCG,0.0365

row,Sequence,binding signal [E-score]
1,ACTTGTAG,-0.0582
2,GGACTCGA,0.0718
3,GCCTTAAC,-0.0842
4,GAGCGGAC,-0.272
5,CCCAGCCC,-0.0988
6,AGTCCAAA,-0.181
7,GGAGCCAA,-0.113
8,AGTTGGAG,-0.135
9,TCCGGTAA,-0.0446
10,ATACACCC,0.46
11,CTCTATGC,0.0703
12,ACTACGAC,0.0445
13,AGCACGCA,0.24
14,AAACGACA,0.0832
15,TACGAGGA,-0.0197
16,ACAGATGT,-0.191
17,TCCACCGA,-0.0307
18,AGCAGAGG,-0.199
19,GACCAACA,0.137
20,CTTAACCA,-0.0657
21,CAGTTCTA,-0.0553
22,ATCCGACC,0.153
23,CCGACTGA,-0.102
24,CGATAGCC,-0.263
25,CTGTGCTA,-0.169

row,Sequence,binding signal [E-score]
1,AACTTTAC,-0.0885
2,ATCGTGAC,-0.104
3,GGCGGCAA,-0.176
4,ATCAGGTC,-0.134
5,AAATAGGT,0.0342
6,AATTTCCG,-0.191
7,ATCCAAAT,-0.0907
8,GCGTGATA,0.173
9,ATCGGTGG,-0.0698
10,TGCGTTAA,-0.252
11,ACGGACTG,-0.137
12,ATGGATTG,0.0187
13,AGGCCCTA,-0.169
14,AGCCCGGG,0.157
15,ATACATCG,-0.00199
16,GCGCCTTA,-0.0142
17,GGGGTACC,0.247
18,CTAAGTGA,-0.0574
19,CTCTGAGA,-0.0504
20,AGAGACGC,-0.15
21,AAGGGCAC,0.0871
22,AAAGGAGC,-0.196
23,AGGGGTTA,0.21
24,ATTAACAC,0.416
25,ATACAGAA,0.0109

row,Sequence,binding signal [E-score]
1,CAAAATAA,0.012
2,TGAAGCCA,-0.194
3,CGGCGCAA,-0.0162
4,GGCGGCCA,-0.171
5,GTGTTTTA,0.361
6,ATGACTAG,-0.0498
7,AACCGTTA,-0.175
8,CGCAGTTC,-0.1
9,ACCTGCTA,0.143
10,GCTCGGCA,-0.0943
11,CATATCTA,-0.145
12,CTCGGCAG,-0.0144
13,AAGCTACC,-0.13
14,ACGTTTCT,-0.0772
15,TTTAAAAA,-0.218
16,ACACAAAG,0.236
17,ACGACGAT,-0.014
18,CACTAAGG,0.0945
19,GAAGTGGC,-0.138
